Laboratory results reported in the supplement of paper PMC4166925.
± gives the standard deviation of the averaged measurements. The full ranking holds about 33,000 sequences; the median of “E-score (dimensionless, -0.5 to 0.5)” is about -0.046, and the highest 2% start at about 0.36. Some of the results follow.
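Note: protein at 200 nM in PBS on universal double-stranded arrays.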

What follows are sequences tested on T1, SpTbr T-box DNA-binding domain (GST fusion) (assay: PBM E-score of 8-mer (E-score (dimensionless, -0.5 to 0.5)); Tbr is Tbrain of the sea star Patiria miniata (Pm) or the sea urchin Strongylocentrotus purpuratus (Sp); higher = stronger binding preference; most listed sequences are background and not binding sites). Details: the construct has about 5 more residues each side.
T1 sequence: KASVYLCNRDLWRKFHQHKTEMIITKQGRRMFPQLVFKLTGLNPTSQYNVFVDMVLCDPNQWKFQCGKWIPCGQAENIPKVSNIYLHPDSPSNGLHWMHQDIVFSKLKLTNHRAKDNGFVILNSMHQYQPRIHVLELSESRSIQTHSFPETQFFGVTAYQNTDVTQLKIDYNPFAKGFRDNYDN
Protocol: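 Universal protein-binding microarray (Agilent AMADID 016060, 60-bp probes with a 35-bp variable region) incubated with 200 nM GST-fused Strongylocentrotus purpuratus Tbr T-box DNA-binding domain (residues 362-554) in PBS pH 7.5. Scored for every ungapped 8-mer (given with its reverse complement) as E-score (range -0.5 to 0.5; >0.45 counts as bound) and Z-score of median probe intensity. Two replicate arrays (datasets 1 and 2).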
AACCGTCG was tested, and the “PBM E-score of 8-mer” value was 0.0986 ± 0.06.
ATCCCGCA was tested, and the “PBM E-score of 8-mer” value was -0.139 ± 0.033.
With CATCGTGC the “PBM E-score of 8-mer” value was -0.00918 ± 0.0049.
With AAAAGCGA the “PBM E-score of 8-mer” value was -0.0551 ± 0.1.
In the case of GTCCTTGA, the “PBM E-score of 8-mer” value is reported as -0.153 ± 0.03.
In the case of CGCAGAGC, the “PBM E-score of 8-mer” value is reported as -0.0851 ± 0.07.
CTAACTGC was tested, and the “PBM E-score of 8-mer” value was 0.068 ± 0.011.
In the case of AACCCCCC, the “PBM E-score of 8-mer” value is reported as -0.177 ± 0.0031.
In the case of ATGCCCCC, the “PBM E-score of 8-mer” value is reported as -0.25 ± 0.0037.
In the case of GCATCTTA, the “PBM E-score of 8-mer” value is reported as -0.111 ± 0.022.
ACCTACAG was tested, and the “PBM E-score of 8-mer” value was 0.0962 ± 0.0064.
With CTCCGTGA the “PBM E-score of 8-mer” value was 0.0421 ± 0.026.
CCAATTAC was tested, and the “PBM E-score of 8-mer” value was -0.0394 ± 0.025.
AATGGTAG was tested, and the “PBM E-score of 8-mer” value was -0.0184 ± 0.033.
GTCGCTGA was tested, and the “PBM E-score of 8-mer” value was 0.112 ± 0.0096.
In the case of GACCACAA, the “PBM E-score of 8-mer” value is reported as 0.016 ± 0.03.
With CATCAAGG the “PBM E-score of 8-mer” value was -0.175 ± 0.019.
GTACTAAC was tested, and the “PBM E-score of 8-mer” value was -0.109 ± 0.035.
With ACATACAG the “PBM E-score of 8-mer” value was 0.0295 ± 0.021.
In the case of GAGACTAC, the “PBM E-score of 8-mer” value is reported as -0.194 ± 0.044.
With CCGAAAAC the “PBM E-score of 8-mer” value was -0.103 ± 0.0052.
AAGACTGA was tested, and the “PBM E-score of 8-mer” value was -0.182 ± 0.0036.
With CAGAACGC the “PBM E-score of 8-mer” value was -0.12 ± 0.029.
GAACCCGA was tested, and the “PBM E-score of 8-mer” value was 0.122 ± 0.0022.
In the case of GCACTACC, the “PBM E-score of 8-mer” value is reported as 0.0381 ± 0.028.
For AGGTAACA, the “PBM E-score of 8-mer” value was 0.283 ± 0.0031.
For GAATGAAC, the “PBM E-score of 8-mer” value was -0.175 ± 0.0039.
With GCAATCCC the “PBM E-score of 8-mer” value was -0.149 ± 0.0016.
AAGCAGCG was tested, and the “PBM E-score of 8-mer” value was 0.0896 ± 0.051.
ACAGTCGA was tested, and the “PBM E-score of 8-mer” value was 0.0199 ± 0.0077.
With AAAAGAAA the “PBM E-score of 8-mer” value was -0.0891 ± 0.091.
In the case of CTGTTCTC, the “PBM E-score of 8-mer” value is reported as 0.0498 ± 0.021.
With CGCGAACC the “PBM E-score of 8-mer” value was 0.375 ± 0.013.
AAGTTTTC was tested, and the “PBM E-score of 8-mer” value was 0.00021 ± 0.035.
For CGACAAAG, the “PBM E-score of 8-mer” value was 0.158 ± 0.034.
ATTCCTGC was tested, and the “PBM E-score of 8-mer” value was -0.175 ± 0.081.
For CCCTCGGC, the “PBM E-score of 8-mer” value was -0.147 ± 0.015.
In the case of GAGTCTCC, the “PBM E-score of 8-mer” value is reported as -0.236 ± 0.025.
In the case of CAAATCTA, the “PBM E-score of 8-mer” value is reported as -0.0867 ± 0.04.
GCAAACAC was tested, and the “PBM E-score of 8-mer” value was 0.258 ± 0.0091.
For ACGCAAAG, the “PBM E-score of 8-mer” value was -0.095 ± 0.035.
For AAAGTCCT, the “PBM E-score of 8-mer” value was -0.289 ± 0.0026.
For GTGTCTAA, the “PBM E-score of 8-mer” value was 0.199 ± 0.025.
With ACGACTTG the “PBM E-score of 8-mer” value was 0.201 ± 0.046.
In the case of CATGAAGA, the “PBM E-score of 8-mer” value is reported as -0.0154 ± 0.063.
In the case of AAGGGAGT, the “PBM E-score of 8-mer” value is reported as 0.0381 ± 0.087.
In the case of GTCCTATA, the “PBM E-score of 8-mer” value is reported as -0.386 ± 0.0075.
In the case of AGACGAAG, the “PBM E-score of 8-mer” value is reported as -0.156 ± 0.084.
In the case of AAATGCAA, the “PBM E-score of 8-mer” value is reported as -0.164 ± 0.052.
CGACGATA was tested, and the “PBM E-score of 8-mer” value was 0.0611 ± 0.037.
For AACGTGGA, the “PBM E-score of 8-mer” value was -0.151 ± 0.012.
For AGTTCTGA, the “PBM E-score of 8-mer” value was -0.131 ± 0.043.
In the case of CGCGTATC, the “PBM E-score of 8-mer” value is reported as 0.217 ± 0.039.
For AGGTAATC, the “PBM E-score of 8-mer” value was -0.0113 ± 0.0055.
With ATTCCGGG the “PBM E-score of 8-mer” value was -0.236 ± 0.0029.
With AAAGGGCA the “PBM E-score of 8-mer” value was -0.0549 ± 0.02.
ATAAGACA was tested, and the “PBM E-score of 8-mer” value was -0.231 ± 0.037.
With CAACTTCA the “PBM E-score of 8-mer” value was -0.0174 ± 0.018.
For TGGGAACA, the “PBM E-score of 8-mer” value was 0.156 ± 0.027.
With CTGCTTAC the “PBM E-score of 8-mer” value was 0.00038 ± 0.057.
AGCCCACG was tested, and the “PBM E-score of 8-mer” value was -0.216 ± 0.05.
ACAACAGC was tested, and the “PBM E-score of 8-mer” value was 0.207 ± 0.0049.
In the case of CCGTCGAA, the “PBM E-score of 8-mer” value is reported as -0.191 ± 0.048.
AAATATTA was tested, and the “PBM E-score of 8-mer” value was -0.00859 ± 0.047.
ACGAGGTA was tested, and the “PBM E-score of 8-mer” value was -0.0678 ± 0.011.
ATCAATCC was tested, and the “PBM E-score of 8-mer” value was -0.172 ± 0.082.
In the case of CATATTTC, the “PBM E-score of 8-mer” value is reported as 0.00998 ± 0.024.
In the case of CCGATTGC, the “PBM E-score of 8-mer” value is reported as -0.0202 ± 0.054.
CAACAATG was tested, and the “PBM E-score of 8-mer” value was 0.0633 ± 0.018.
CGTTCCCA was tested, and the “PBM E-score of 8-mer” value was 0.0732 ± 0.0075.
In the case of CCCCATAG, the “PBM E-score of 8-mer” value is reported as -0.106 ± 0.053.
With GTGGACAC the “PBM E-score of 8-mer” value was 0.2 ± 0.025.
AGCATCAG was tested, and the “PBM E-score of 8-mer” value was -0.168 ± 0.013.
With ATAGTCCA the “PBM E-score of 8-mer” value was -0.213 ± 0.016.
CTATAGGC was tested, and the “PBM E-score of 8-mer” value was -0.15 ± 0.022.
For CTTGAAAG, the “PBM E-score of 8-mer” value was -0.132 ± 0.02.
CCACCGAG was tested, and the “PBM E-score of 8-mer” value was -0.103 ± 0.15.
In the case of GCGCGAGC, the “PBM E-score of 8-mer” value is reported as 0.298 ± 0.053.
In the case of ACACTATG, the “PBM E-score of 8-mer” value is reported as 0.339 ± 0.025.
ACTTGTAT was tested, and the “PBM E-score of 8-mer” value was -0.13 ± 0.024.
For GGGCAACC, the “PBM E-score of 8-mer” value was -0.156 ± 0.12.
For AGCTCAAG, the “PBM E-score of 8-mer” value was -0.19 ± 0.025.
With CCGCAAAC the “PBM E-score of 8-mer” value was 0.00862 ± 0.081.
In the case of TACCCAAA, the “PBM E-score of 8-mer” value is reported as -0.247 ± 0.021.
In the case of GGGGTGAC, the “PBM E-score of 8-mer” value is reported as 0.293 ± 0.043.
With CTGAGTTC the “PBM E-score of 8-mer” value was -0.0724 ± 0.1.
